Here are results for 167 variants from the RNAGym collection of RNA variant scans (doi:10.7554/elife.90254).

The chains are these.
B1: LINE1-mini (parent)
chain: GGCAGAGCUCAACACAGCGUGGCAAAGUGGCUGUGGCUAGACUGCC

The source gives no read counts; variants with many changes may rest on few reads.

The variants in this series derive from B1. Nature of the series: self-cleavage, relative activity (ratio to wild type); higher = more cleavage; in vitro, sequencing; the parent is a self-cleaving ribozyme.
Turning to G17A G19A G22C U32C, the self-cleavage was 0.03. With G17C A25G G27A C37U the figure was 0.01; with G17A G33C U43C, 0.02. For G17A C23G U32G, the self-cleavage is 0.04.

As to A16G G29C G33U U38C C45G, the self-cleavage stood at 0.01. For the variant A16U G17A C37U, the self-cleavage came to 0.54. On to G17A A26U C31G C42A, for which the self-cleavage came to 0.04. Turning to A16U G36U C37U C46A, the self-cleavage is 0.04. Consider A16U U32C C37U, for which the self-cleavage is 0.04.

Regarding G17A A26C C45A, the self-cleavage came to 0.01.

Turning to G17C A25G G33U A39U, the self-cleavage was determined as 0.04.

Regarding G17A G33A C45U C46U, the self-cleavage came out at 0.06. The figure for A16U C18A A24C G36C is 0.01; for A16U G17U A25G U32C it is 0.09. The figure for A16G G27A C42U is 0.01. The figure for G17A A25G U43C is 0.02; for G17A U20C G21U it is 0.18; for G17C A26U A39U C46G it is 0.08.

Turning to G17A U34G G35U U38A A39U, the self-cleavage stood at 0.04.

As for G17A C18G G33U C37U, the self-cleavage is 0.05.

With A16G G27U C37G, the self-cleavage stood at 0. As to A16U G19A U28A G40U, the self-cleavage amounted to 0.21. A16U C18U C23A A39G: the self-cleavage turned out to be 0.03.

For A16U G33A C45U, the self-cleavage came out at 0.09.

In the case of A16U C18G G33C C45A, the self-cleavage was 0.01. As to G17A A25C G29C G33A G35U, the self-cleavage amounted to 0.01. As to A16U A25G A26C, the self-cleavage amounted to 0.06. In the case of A16U G19C G33U, the self-cleavage came to 0.01. For the variant G17A A24G A41G, the self-cleavage stood at 0.01. G17C A25C U28C: the self-cleavage is 0.16. For the variant A16U C18U C31U U38G, the self-cleavage was found to be 0.01. As for A16U G17C U20C, the self-cleavage amounted to 0.15. As for G17A C18U C37U, the self-cleavage is 0.04. For G17A G29U C45G, the self-cleavage was found to be 0.02. On to A16G U38A A41U, for which the self-cleavage turned out to be 0.04.

Turning to G17A U32G G44C, the self-cleavage is 0.02. In the case of A16G G29U G36A C42G, the self-cleavage was 0.01. With A16U A39C C42G the figure was 0.01; with G17A G19U U20A, 1.12; with G17A G40U C42A C45U, 0.1. On to G17A U20G A24C A41U, for which the self-cleavage worked out at 0.02.

With A16G G21A G35A A39C A41U, the self-cleavage was 0.01. A16U C31U U34G U38C: the self-cleavage is 0.04. A16U A25U G29U: the self-cleavage was 0.28. With A16U C23U G40U the figure was 0.02. Turning to A16U A25U G27A, the self-cleavage turned out to be 0.94. With G17A U20G U34A G36U, the self-cleavage turned out to be 0.02.

Consider A16U G17A G44A C45G, for which the self-cleavage is 0.1.

On to A16U U28G C31A, for which the self-cleavage was found to be 0.25.

Turning to G17A U20A G21A, the self-cleavage was 0.96. The figure for G17A C31U G36A U43C is 0.32; for G17A G19C G30U C31U it is 0.2. Turning to G17A G21U U38A G44C, the self-cleavage worked out at 0.02. With G17A C37U G40U the figure was 0.05; with A16U G19C G22A, 1.82. Regarding A16U U20G C37A, the self-cleavage amounted to 0.01. Regarding A16U G22C U32C U43C C45G, the self-cleavage amounted to 0.02. G17A G29A G40A: the self-cleavage worked out at 0.01. Regarding G17A G29A G40U, the self-cleavage worked out at 0.04.

With A16U C37G G40U, the self-cleavage came out at 0.03.

G17A A24G A26C G35U: the self-cleavage was 0.03. Regarding A16G G22C G36C, the self-cleavage amounted to 0.01. In the case of G17A U20A G22A A26G U43G, the self-cleavage was 0.13. In the case of G17A U20A C37A, the self-cleavage came to 0.05. Take A16G G22U G35C C46G: the self-cleavage was determined as 0. In the case of A16U C37U C42G, the self-cleavage was determined as 0.01. For G17A G44A C45U, the self-cleavage was 0.04. Regarding A16U G40U U43C, the self-cleavage is 0.03. Regarding A16U G40U U43A, the self-cleavage was determined as 0.3.

Turning to A16U G19U U38C, the self-cleavage is 0.08. As to A16U C18U G40U, the self-cleavage is 0.12. The figure for G17A G19U G21U C23G A24U is 0.07; for G17C A24U G35C C42A it is 0.02. In the case of G17C A24C U32A, the self-cleavage was determined as 0.03. With G17C A26U U43A the figure was 0.14. Regarding A16G G21U G27U, the self-cleavage came out at 0.78.

Take A16G G22U U28A C37A: the self-cleavage was found to be 0.02. A16U C37A G40U: the self-cleavage turned out to be 0.04. Turning to G17C A24G G27A U32C, the self-cleavage worked out at 0.09.

Regarding G17C C18G G33C C37U, the self-cleavage came to 0.01. In the case of A16G G22C A41U, the self-cleavage was found to be 0.04. As for A16U A26U G27U G35A, the self-cleavage is 0.17. As for G17A G19C A41G, the self-cleavage stood at 0.5. Turning to G17A G22A G29C, the self-cleavage is 0.31.

For A16U G36C C45U, the self-cleavage came out at 0. The figure for G17A C31A U32G G36U is 0.04. For the variant G17C C18A G29C U32C U38G U43C, the self-cleavage came out at 0.06.

Take A16U G36U C45U: the self-cleavage came out at 0.02. Consider A16G G19U G40U, for which the self-cleavage came to 0. As to G17A G35C G44A, the self-cleavage came to 0.05. With A16G U28C G30A U43G the figure was 0; with A16G G27A U34A, 0.03.

G17C A26C U38C G40U G44U: the self-cleavage was determined as 0.07. A16U C23U G27A U34G A41G: the self-cleavage amounted to 0.03.

For the variant A16U C31A G44C, the self-cleavage was determined as 0.02. Regarding G17A G19C G27A A41U, the self-cleavage amounted to 0.39. The figure for A16G U28C C31U is 0.01. A16U G21A G36C A39U A41C: the self-cleavage was 0.02.

As to A16U G22C G40U, the self-cleavage turned out to be 0.03. For the variant A16G G27A U43G, the self-cleavage came to 0.02. A16G G27A U43A: the self-cleavage was determined as 0.

On to G17A G19A C31A C46A, for which the self-cleavage stood at 0.28. Take G17A U28C G35U C42A: the self-cleavage was determined as 0.07.

Consider A16U C31U G44C, for which the self-cleavage worked out at 0. With G17A G33U A41G C45U the figure was 0.09; with G17A G35C G36C U43C, 0.01; with G17A G22A A39G, 0.11. Take G17A G21U G29U A39U: the self-cleavage amounted to 0.07. Consider A16U G21C C42U, for which the self-cleavage turned out to be 0.09. Consider G17A U20C G21C A26G G30U, for which the self-cleavage was 0.03. With G17A G33A U38G C45G, the self-cleavage is 0.02.

Take G17A C23G U28A A39G: the self-cleavage was 0.03. With A16U A24G C46U, the self-cleavage came to 0.07. Regarding G17A G29U U43A, the self-cleavage was 0.05.

On to A16U A26C A41C, for which the self-cleavage worked out at 0. Regarding A16U A26C G30A C45A, the self-cleavage turned out to be 0.03. A16G G40C A41U C42A: the self-cleavage was 0.04.

For the variant A16U C42U U43G, the self-cleavage worked out at 0.07. For A16G G35A C45G, the self-cleavage was determined as 0.01. On to A16U U38C A39C G44A, for which the self-cleavage amounted to 0. Regarding A16U A41U G44A, the self-cleavage was determined as 0.02.

Consider A16U G17C C31A G33U, for which the self-cleavage came to 0.03.

For G17A C23U G29U, the self-cleavage was determined as 0.08. A16G G22U G33A: the self-cleavage came out at 0.03. Take G17A G33A C37A: the self-cleavage is 0.01. With G17A C31U G35A U38A G40A the figure was 0.01; with G17A U28A G33A, 0.04. A16G U34A U43C: the self-cleavage turned out to be 0.05. Take A16U G21A A24G: the self-cleavage was 0.1. The figure for G17A G36A A41U is 0.17; for A16U G30A G36A C37G it is 0.03. The figure for A16U G21U A26C C31A G33A is 0.17.

Consider G17A U28C G30U A41C, for which the self-cleavage turned out to be 0.01. With A16U U34G A39C the figure was 0.02; with G17C A25G G35U, 0.06; with A16U G29U C46G, 0.44. With A16U C18U G36U C46A, the self-cleavage was determined as 0.02. For A16U A41G C46A, the self-cleavage was determined as 0.01.

Consider G17A C18A U34A, for which the self-cleavage turned out to be 0.02.

A16G U34G C45G: the self-cleavage was found to be 0.02. For A16G G22C G29U, the self-cleavage worked out at 0.07.

Take A16U U28C C45A: the self-cleavage is 0.08.

As to A16U G27A G30U U32C, the self-cleavage stood at 0.21.

In the case of G17C C18A G29A G30A, the self-cleavage was 0.09.

For the variant G17A A24C G30U, the self-cleavage was 0.07. Turning to A16G G22C G40U C42G, the self-cleavage is 0.02. The figure for A16U C31A A41C C45G is 0.

For the variant G17C A26C G27A, the self-cleavage is 0.37. With G17C A25C G40A, the self-cleavage turned out to be 0.03. As to A16U G35U G40A, the self-cleavage was determined as 0.05. Take G17A G21C A39C: the self-cleavage is 0.35. As to G17A C31A U32C U34C, the self-cleavage was 0.04.

Turning to G17C A24G C46U, the self-cleavage was 0.04. Take A16U G35U G40C G44C: the self-cleavage came to 0.01. As for G17A C23U A26G, the self-cleavage turned out to be 0.85. For the variant A16U U28A C42G, the self-cleavage worked out at 0.03. In the case of A16G U20C G30A C42U G44C, the self-cleavage stood at 0.11. For the variant G17A G30C U34C G40C, the self-cleavage was found to be 0.09. As to A16G G21A A24C G30C C31G G33A G35C, the self-cleavage was 0.01. With A16U C18U A25G the figure was 0; with A16U U34C A39G C46A, 0.09.

For A16U C18G U32G A41U, the self-cleavage came out at 0.02.

For G17A U20A G22C A26U, the self-cleavage came to 0.02. The figure for A16U G22C G33A C42G U43A is 0.09. A16U G27U U34A: the self-cleavage stood at 0.03.

For the variant A16U C18G G30A, the self-cleavage is 0.25.

G17A G21A G22C: the self-cleavage turned out to be 0.25.
